Measurements: publication PMC12136788
This is one part of the list.

T1: UNK ZnF1-3 (human, UniProt Q9C0B0 31-174)
T1 sequence: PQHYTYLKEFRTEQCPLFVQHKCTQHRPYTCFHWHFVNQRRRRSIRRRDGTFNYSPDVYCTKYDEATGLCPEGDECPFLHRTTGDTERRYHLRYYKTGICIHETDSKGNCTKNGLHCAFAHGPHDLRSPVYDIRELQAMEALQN

B1: chr11:46405157:46405158:+_ENSG00000110492_ENST00000395566|hu_hu|hu_hu_hu_mus_False|68_108 (ssRNA)
RNA: GGGAGUUCUACAGUCCGACGAUCCCCUUAGGGGUGGGGGCACUUGGUGUGGGCGUGAGAGGACAGGAUGAUUGAUUAGAGCUGACAGGAAGACAAAAGGCACUGGUGGGUUAUAUCUUGGGCCUGUGGGAGAGGAGGGCUCCGCAACAGAGGAUUGAGCAUCA
B2: chr17:66251843:66251844:+_ENSG00000196704_ENST00000359783|hu_hu|motif|central (ssRNA)
RNA: GGGAGUUCUACAGUCCGACGAUCAAAUAUGUGUCCGAUCUCAUGGGUUAAAGUCUUACAGGAUCGAAGUAGUAAAACACGGGUUAUUUCUGGAAUAUAAUAGUUGUCGAAAAUUGAAUAGUCACUUGAAGAUGUUUUCUUGAGCAACAGAGGAUUGAGCAUCA
B3: chr11:20128097:20128098:-_ENSMUSG00000044066_ENSMUST00000050611|mus_hu|FALSE|FALSE (ssRNA)
RNA: GGGAGUUCUACAGUCCGACGAUCCCAACUCUAGGUUUUCAAGAAUGUUUUACAUACAGGUUUAUAAUUGACAAUUAUUUGCUAGAGUGGUUUUUCCCUUUUAAAGUCUCAGUGUGUAUGGAACUAAGAUGAUUAAUAUGGCAACAACAGAGGAUUGAGCAUCA
B4: 93515602_93521466_3588_CDS_ENSG00000173575_ENST00000394196|human|control|control (ssRNA)
RNA: GGGAGUUCUACAGUCCGACGAUCGUCCUCAGACCCAUCUGCAUUGAAGUGGUCCAGUGCCUGUUUUCGGAUUUCUCCCUUGAUGGAACCAUCCAGACGCUGGAAAGGAUAGUGUUUAAUAGUUAGGUAUUCAGCCAGGAUAUCCAACAGAGGAUUGAGCAUCA
B5: chr4:108167797:108167798:+_ENSMUSG00000034610_ENSMUST00000043368|mus_mus|FALSE|FALSE (ssRNA)
RNA: GGGAGUUCUACAGUCCGACGAUCCUCCACAAUGUCCUGGCGGAUUCUGAGGUCAUCAUCUGUUAUUCCUUGUUCUUUUGCUAACUCAACAACUGCAACACUUAAAGCAGCCAAGUGAGCAGAGGAAGGAGAUGGAAGAGACCGCAACAGAGGAUUGAGCAUCA
B6: 76620712_76620832_132_CDS_ENSG00000089916_ENST00000261530|human|control|control (ssRNA)
RNA: GGGAGUUCUACAGUCCGACGAUCGCGUUUCCGAAGCUGCCGCCUCUGCUGUCGGGGGCUCAGCGCCAUCUCCUCCCACAGUUCACCAAGCUUAUUCUGCUCAGAUGUCUGCUCCAAGGCUGAGGCUAAGUCGUGUACCAGCUCCAACAGAGGAUUGAGCAUCA
B7: chr10:34671499:34671500:-_ENSG00000148498_ENST00000340077|hu_mus|motif|central (ssRNA)
RNA: GGGAGUUCUACAGUCCGACGAUCGAUGCUGAAUCCCAGUCCUUCUGUACCUUUCUUAAGCUGGAUGUUGAGCCUCUUGCCGGCUUUCUUCGUGUUGUACACACUGCCUACGUUGGUACUAAGCACACUGGGUGGAGCCAAGGCCAACAGAGGAUUGAGCAUCA
B8: chr9:136895555:136895556:-_ENSG00000169925_ENST00000303407|hu_mus|motif|central (ssRNA)
RNA: GGGAGUUCUACAGUCCGACGAUCACCGUUUUUUUUUUUUUUUUACUCUGUGGUGUUGAGGCCGGCAUUGCAAAAAACAAGCGGAACGGCUUACAAUGGACUCAUUUUCAGUAACUGACAUUUACAGGAAUAUACUAGAAACGGCAACAGAGGAUUGAGCAUCA
B9: chr14:66974463:66974464:+_ENSMUSG00000022044_ENSMUST00000074523|mus_hu|mus_mus_mus_hu_False|58_108 (ssRNA)
RNA: GGGAGUUCUACAGUCCGACGAUCUUGUAGGAUGAUUUAUUCAGGGGAUCGGCCAGGAAGCAGGAGCAGAACAAGGACACUAGUGGGAGCUCCUUCAUCUUCUCUUUGUAGGCAGCAAGGGUCAUGUUUCUGGGAUCUGGUGGCCAACAGAGGAUUGAGCAUCA
B10: chr10:8116392:8116393:+_ENSG00000107485_ENST00000346208|hu_hu|FALSE|FALSE (ssRNA)
RNA: GGGAGUUCUACAGUCCGACGAUCACUGUGGCCAGUGAAAGGAAACAAAACUGGCAGUUUGUCCAUUUGAAUAUCAGACCUAGUUUCUUCUUAAUUUCCACACUAUUUCUCCCAUAUUCCUUAAACUUCUUGGCAUCCUUCAUGCAACAGAGGAUUGAGCAUCA
B11: chr6:31458560:31458561:+_ENSMUSG00000025609_ENSMUST00000026699|mus_hu|FALSE|FALSE (ssRNA)
RNA: GGGAGUUCUACAGUCCGACGAUCUAAACGGGAGCCCUGGUUCUGCAGAGCUCUUCUGGACGAAAGAGUCAUUUUCUCCUAAAAUUGCUAUUAAGAUAUUAUUCACUACUAGAUCCCUCCUGCUGGUCACUUUUAGAAUGGCUCCAACAGAGGAUUGAGCAUCA
B12: chr5:4754414:4754415:-_ENSMUSG00000044674_ENSMUST00000054294|mus_hu|motif|central (ssRNA)
RNA: GGGAGUUCUACAGUCCGACGAUCGUAAUAAAAUGUUGAAAGUGUACAACUUUUACAUUUUAAAGUUUCUGAUAUAUGUCGGGUUAUUUGAUUAAAAAUAAGAAAAUAGCACUUCAUUUUGAGGAAGUCCAUGACACUGAAAUACAACAGAGGAUUGAGCAUCA
B13: chr4:140309118:140309119:+_ENSG00000164134_ENST00000296543|hu_hu|FALSE|FALSE (ssRNA)
RNA: GGGAGUUCUACAGUCCGACGAUCAUAUCCAGGAGGCAUGAAAGCCAAAGCAUAAGGGAAAAGCUUAUGACAAUUUGCUCUAUAAAUUUCAGCAGCUUCUUUACAGUCUCCUAGGCUACCAUCAUACAAGGCUUCCAAUACCUCCAACAGAGGAUUGAGCAUCA
B14: chr2:122217683:122217684:-_ENSG00000074054_ENST00000409078|hu_hu|motif|central (ssRNA)
RNA: GGGAGUUCUACAGUCCGACGAUCACGCAAAUGUUGAAAGAAGUUAUCAUACUCAGCAGCACCAGCCAAAAGUAAAGAUCGGAUCUUUUUUAGAGCAUUUACUCUCUGCUCCCAAUCAUGCUUGUCAUCAGAUAAUAUUUCCCUCAACAGAGGAUUGAGCAUCA
B15: 102499477_102499683_10379_CDS_ENSG00000197102_ENST00000360184|human|control|control (ssRNA)
RNA: GGGAGUUCUACAGUCCGACGAUCGUCCUUGGCGUCAUCUUCCAGCUUCUGCAGCUCAUUGCGUAGGGGCUCCACUCUCUUUAACAUGUCUGCAUAGUUAAGCUGUGCAAUUGCCCAUUUCACCAUAGGGCCGCAAGCCAGGGACAACAGAGGAUUGAGCAUCA
B16: chr8:59359966:59359967:+_ENSG00000215114_ENST00000399598|hu_mus|motif|central (ssRNA)
RNA: GGGAGUUCUACAGUCCGACGAUCCGCAAAUUCAGGACGUGACCGUACUAUAAAGUCUCGUACAUCCAGAAUCCGGUGUGUGCGGUUGAAUCUCUGUACGAGACGACUUCCAUCUGCCAACCUGAUCUGAAUUUUUGUGGUGGGCAACAGAGGAUUGAGCAUCA
B17: chr11:50196439:50196440:+_ENSMUSG00000007850_ENSMUST00000069304|mus_mus|FALSE|FALSE (ssRNA)
RNA: GGGAGUUCUACAGUCCGACGAUCCCCAUAUCUGUGGUCAGACAUUCCUGAAAAACAAUAAUUGAGGUCUCUUCCAAAUCUAUCUGAACCAAAUCCAUAGCCAUCAUUAUAGCCAUUAUAAUCAUCAUAGCCUCCAUAGCCUCCCAACAGAGGAUUGAGCAUCA
B18: chr9:79616815:79616816:-_ENSMUSG00000032328_ENSMUST00000034878|mus_hu|FALSE|FALSE (ssRNA)
RNA: GGGAGUUCUACAGUCCGACGAUCAAGACACCUGAACAUAGCAAAAUUAAUUUUGUUCAUUUUUAUUAACAUAGGACAUACUAACCAAAUAUUAUCAUUUAAUAAAAUCAACGUUACAAAGAAACUCACUAGCAAAUAAACAAACAACAGAGGAUUGAGCAUCA
B19: chr3:37096630:37096631:-_ENSG00000093167_ENST00000421276|perfect_dup|motif|central (ssRNA)
RNA: GGGAGUUCUACAGUCCGACGAUCUUGUUCCAAGGUAGCUAUGUCUUGUUCUGCUUUCGAAAGCUUGAAUUUGUAUUCACGGAUUUGUCUAUUGGCAUCUCUCUGCAUCUCGAUGAACUGCAAGUCUGAGCCGUUCUGCAGUCCCAACAGAGGAUUGAGCAUCA
B20: 47738096_47738216_1977_3pUTR_ENSMUSG00000023988_ENSMUST00000024783|mouse|control|control (ssRNA)
RNA: GGGAGUUCUACAGUCCGACGAUCGACAGGGAGGAGCCAGCAGUGACUCCCACCUCUCCCGUGGGUGACAGGGGAGAGAGGCAGGGACCUCCAGGGACCAAAACACAAGAGCUGCGAUAAAUAAAUGCCUGUUUUCUCCGCACCCAACAGAGGAUUGAGCAUCA
B21: chr14:94519448:94519449:-_ENSG00000089737_ENST00000330836|hu_mus|FALSE|FALSE (ssRNA)
RNA: GGGAGUUCUACAGUCCGACGAUCUGAGUUGUGCAGACAAGCCUGGAAGUUCCGGUAUUCAGCUUUUUCAAUCUGUCGGGCUAGACGGAUCCGCUCCUUGACCACAUCCAUGUACUUGGACUGCACUGGAAACAGUGGGAUGUCCAACAGAGGAUUGAGCAUCA
B22: chr5:121736274:121736275:+_ENSMUSG00000042744_ENSMUST00000119892|mus_mus|motif|central (ssRNA)
RNA: GGGAGUUCUACAGUCCGACGAUCCUGGUGAAUGCACAUGGCGCCAACAUGGUGCAGUAACUGGUUUAUGACUUCAUUUGUGCGGAUGGCCUCUUCUUUGGGCUCGGUGAUGAUAUGGCUGACACCCAGUCUCUGGCACACGUACAACAGAGGAUUGAGCAUCA

biological target: T1, UNK ZnF1-3; assay: nsRBNS (natural sequence RNA bind-n-seq); RBNS binding buffer (assumed for nsRBNS): 25 mM Tris pH 7.5, 150 mM KCl, 3 mM MgCl2, 0.01% Triton X-100, 500 ug/ml BSA, 20 U/ml SUPERase-In, 4 C; UNK is unkempt and MSI1 is Musashi-1; names of the RNAs are library labels; protein concentration not given here; high values mean tight binding

Binder	binding signal [enrichment R]
B1	2.51
B2	1.55
B3	0.811
B4	0.586
B5	1.05
B6	0.847
B7	0.701
B8	0.88
B9	2.66
B10	0.908
B11	0.654
B12	0.438
B13	0.811
B14	1.41
B15	0.45
B16	0.701
B17	1.49
B18	1.51
B19	0.553
B20	1.78
B21	0.738
B22	0.83
